Results published in the supplement of paper PMC3334620.
In all, about 33,000 sequences were measured (“E-score (-0.5 to 0.5)”: median about -0.032, highest 2% from about 0.36 on). Some of the results follow.

The sequences below were run against T1, Sko1 (UniProt Q02100) (assay: PBM E-score (8-mer binding enrichment) (E-score (-0.5 to 0.5)); higher = stronger / more preferred TF binding; most listed sequences are background and not binding sites). Details: protein concentration: 200 nM; construct: GST-full length.
T1 sequence: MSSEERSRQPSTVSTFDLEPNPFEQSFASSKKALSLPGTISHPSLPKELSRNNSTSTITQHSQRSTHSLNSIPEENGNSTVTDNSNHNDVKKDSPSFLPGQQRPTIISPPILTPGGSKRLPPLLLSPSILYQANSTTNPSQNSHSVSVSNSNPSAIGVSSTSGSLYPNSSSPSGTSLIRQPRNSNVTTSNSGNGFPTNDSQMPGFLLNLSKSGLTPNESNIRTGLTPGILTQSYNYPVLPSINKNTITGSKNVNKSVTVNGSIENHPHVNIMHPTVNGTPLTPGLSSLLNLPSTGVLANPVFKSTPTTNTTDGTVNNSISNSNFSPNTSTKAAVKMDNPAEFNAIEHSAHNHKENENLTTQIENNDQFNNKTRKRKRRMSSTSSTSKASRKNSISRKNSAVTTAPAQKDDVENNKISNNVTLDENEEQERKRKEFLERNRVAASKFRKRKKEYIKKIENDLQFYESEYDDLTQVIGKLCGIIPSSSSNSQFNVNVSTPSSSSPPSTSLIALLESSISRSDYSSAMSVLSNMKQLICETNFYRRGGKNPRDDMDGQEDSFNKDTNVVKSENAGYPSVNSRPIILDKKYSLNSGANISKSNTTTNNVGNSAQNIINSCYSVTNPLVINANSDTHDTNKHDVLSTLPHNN
Procedure, shortened: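 Yeast transcription factors carrying a GST tag, as full-length proteins or DNA-binding domains, were produced by PURExpress in vitro transcription/translation. About 100-200 nM protein was applied to universal all-10-mer Agilent arrays, double-stranded by primer extension on fresh or once-stripped slides. Bound protein was detected with fluorescent anti-GST, and scans were normalised with masliner. The Universal PBM Analysis Suite gave each ungapped eight-base word, pooled with its reverse complement, an E-score, a modified Wilcoxon-Mann-Whitney statistic.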

Sequence | PBM E-score
TAGAAATA | 0.161
GATTTGTA | 0.146
GTTGTTGA | 0.165
CGCTTTAG | -0.00956
AGAATGCC | -0.137
AATTTTGC | 0.118
AAGCCCTG | -0.247
AATATGCG | 0.126
GAAATGAC | 0.318
GCAGGACC | -0.196
CCACTATA | 0.0141
GTTTCCGA | -0.0513
CCCATTCG | 0.104
GCCGGAGC | -0.383
CAGCATCG | -0.332
AGGGATTC | -0.113
CGCTGGCA | -0.109
CCATATGC | 0.02
CCCCATAA | -0.144
CCTATTAG | 0.0617
ACTCGCCG | -0.0899
CATCCCGC | -0.0522
CAGACTCA | 0.0156
GTACACCA | -0.0836

Sequence | PBM E-score
AGCCGCGA | -0.28
ATACGAGG | -0.146
CGTCGCGC | 0.121
GGACGATA | 0.0228
AAACTAGT | -0.079
GATTCCGA | -0.184
ATGAGCGC | -0.0132
AAAGATTA | 0.143
CGCTCTTC | -0.252
GGACAGAA | 0.00525
CCTAACAG | -0.102
TCGCCTAA | -0.0546
CATGGCTA | -0.0685
GCTTATTA | 0.14
ACGTTATG | 0.419
AGCTCATC | -0.186
AACTCGAA | 0.0158
CGCAGTAC | 0.118
GACGGGCA | -0.145
CTTGCTGC | -0.0891
CGTTCAAC | 0.112
GATGCAAC | -0.0594
TTAAGGAA | 0.0566
CTAGATCA | -0.0181

Sequence | PBM E-score
ACCGTGAG | -0.208
AGGAAAGG | -0.329
ACACGAAG | 0.147
AAATGTTC | 0.129
CTTTGAGA | 0.125
ATTCCGCA | -0.0897
AACCCATG | 0.112
CAACATTC | -0.167
TGCCACAA | 0.0326
CGTTACGC | 0.362
CCCCCTTC | -0.4
CTAAAAGC | -0.0417
AGCGCTTC | -0.0605
CAAAATGG | -0.118
CCCGAACG | -0.166
TAACGGAA | 0.0503
CACTTGGG | -0.313
ACCCGGGT | -0.236
CTCGAGGA | -0.0345
ACGGGACC | -0.36
AAGAGCAT | 0.0596
ACATGGTG | 0.143
AGTATCAG | -0.0488
ATGGCAAG | -0.123

Sequence | PBM E-score
CTGATCCC | -0.269
CTACATAG | 0.0305
AAGCTCAC | -0.141
AGATGGCT | -0.102
CCCCTCGG | -0.141
GCTTGCGA | 0.0471
ATTCATTG | 0.0712
ACCACGAC | 0.128
GCCAATAC | -0.0762
ATAAGTGA | 0.144
AGCGTAGA | -0.0243
AGCTGCCC | -0.138
AATCAGGA | -0.0594
ACAACGGA | 0.00163
ATCACATG | 0.0961
GACCCGCC | 0.0386
AATTGAAT | 0.103
CCACCACC | -0.219
ATCCGCGG | -0.0772
CTACCACC | -0.201
GTGACCCA | -0.0483
CGTGCACG | 0.259
GATGTTTA | 0.128
ATAATAGA | 0.163

Sequence | PBM E-score
CGACCACC | -0.243
ATACACGA | 0.124
AGACAGGC | -0.376
AAGGTCCT | -0.168
AATCGAGT | -0.0426
CATACATA | 0.285
CGATACCC | -0.058
AATAACGA | 0.212
AGTGTTCG | -0.00769
TCATAACA | 0.268
ATCTCTAA | 0.00152
CCTTACGA | 0.145
TAAAATTA | 0.276
AGAACCCG | -0.129
ATTTATCC | 0.0903
CACATAGA | 0.0235
GAAATTAA | 0.289
CACTCTCA | -0.0435
ACAGATCA | -0.0549
GGCGTGGA | -0.168
CTCCGTTC | -0.127
AATCTAGC | -0.126
GCATCAGC | -0.125
TCCCAAAA | -0.048

Sequence | PBM E-score
TAGCATCA | 0.186
CACAGACC | -0.0703
CAAGCAGG | -0.249
AATCTGAA | 0.127
CGTCTCGC | -0.0776
AGCAACTC | -0.164
ACGGCCAA | -0.178
ATCAGACC | -0.0486
GATGTAGC | -0.0207
GGAAGTCC | -0.386
ATCGCAAC | 0.0527
AATGAGCT | 0.127
AATATGCA | -0.0191
ACCTCTTA | 0.0216
AAAGGCTC | -0.235
TCTCACAA | 0.0132
CTGATTCA | 0.00536
CGTCGATA | 0.146
ATCAAAAC | 0.0239
GACTATCA | -0.086
CAGTTGGA | -0.0219
GAAGAGTC | -0.013
CCCTGATA | -0.149
ACGGATGG | -0.14

Sequence | PBM E-score
ATGTTAAA | 0.205
CATTGCCC | -0.384
AGGGCGAG | -0.282
AGTAATCC | 0.0657
ACGAGGGC | -0.178
GCCTCATA | 0.0655
ACTGGTCG | -0.352
GACAGCAA | -0.0173
CGGTAAAG | -0.0232
ACTCAAGC | -0.118
GATCGCAC | 0.0864
CTGGACCC | -0.326
ACGATCTA | 0.0711
AGCGATTC | 0.0152
ATTTTATC | 0.166
AGAGGCCC | -0.45
GCCAACCC | -0.167
GAGGTTAA | -0.0755
ACGCTACC | -0.128
AAATACGA | 0.302
ACTCCTTG | -0.0755
AGTGAACG | -0.00836
CCATAGTA | -0.0911
CTGCTACC | -0.0769

Sequence | PBM E-score
CAATTACC | 0.156
GCTTAGTA | -0.0128
ATTCTCGA | 0.114
ATCGTGAC | 0.256
CTTCGGTC | -0.0632
ATCTAAAT | 0.164
CTTTCGCA | -0.0437
AACTAAAC | 0.0828
CGCCGGAG | -0.179
GCCATCGA | -0.101
CAGGAGGC | -0.0762
CGGCAAAA | 0.00383
CACGAGGC | -0.109
GGGGTCCA | -0.214
ACGAGGCA | -0.0329
CAAGGTAG | -0.224
CGGTCGTA | -0.208
GCAAAAGC | -0.0091
AAGCAATT | 0.025
AGATGTGA | 0.125
TATGAAGA | 0.153
GCATTTTA | 0.111
CGTGTGAG | 0.212
CATCGACC | -0.0723
